# Several values for one entry are separate records, joined by “and”; a condition that tells them apart may be missing. Equal values may be shown once. Inconclusive results, whose numbers are uncertain, are shown with a selection of clear calls. Potencies beside an inconclusive call are fits to weak or partial responses and may not hold up. Where a structure was tested more than once in an assay, its records may differ in their call. Activity calls are given as the source filed them. Calls follow the shape of the dose curve; as a rule, active = well fitted curve in the direction sought with a large enough effect; inconclusive = small, poorly fitted or top-dose-only effect, or another doubt; inactive = no such curve, though single readings can be large; an effect the other way counts as inactive or inconclusive.
# How the values were obtained:
# NIH3T3 = test: Cytotoxic Profiling of Annotated Libraries Using Quantitative High-Throughput Screening (AID 1296008); conditions: Five cell lines viability, CellTiter-Glo ATP luminescence, 48-72 h; max response: stronger effect = lower value; also: nearly all actives have a fitted effect of over 60% in size
# In short: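 Cells exposed to compounds for 48 or 72 hr at 37 degrees Celsius. Viability read as ATP-coupled luminescence with CellTiter-Glo after 10 min at room temperature.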
# C33A = test: Primary qHTS to identify gynecologic anti-cancer compounds using libraries of approved drugs and bioactive compounds (AID 1345084); conditions: Gynecologic cancer cell panel viability, ATPlite luminescence, 48 h; series mostly up to 57.5 µM; also: nearly all actives have a fitted effect of over 55% in size
# In short: (§1)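 48 h compound exposure at 37 C, 5% CO2; five-point qHTS. ATPlite luminescence readout of cell ATP.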
# CAOV3 = test: as above; conditions: Gynecologic cancer cell panel viability, ATPlite luminescence, 48 h; series mostly up to 57.5 µM
# In short: as §1
# UISO = test: qHTS assay to identify novel small-molecules to repurpose for Merkel cell carcinoma treatment (AID 1296009); conditions: MCC and control cell lines, CellTiter-Glo viability, 72 h; series mostly up to 46 µM; also: nearly all actives have a fitted effect of over 60% in size
# In short: (§2)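 Cells were incubated with compound for 72 hr at 37 degree celsius before CellTiter-Glo addition. Luminescence was normalized with no-cell wells as full cytotoxicity and DMSO as baseline.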
# MCC-13 = test: as above; conditions: MCC and control cell lines, CellTiter-Glo viability, 72 h; series mostly up to 46 µM
# In short: as §2
# MCC-26 = test: as above; conditions: MCC and control cell lines, CellTiter-Glo viability, 72 h; series mostly up to 46 µM
# In short: as §2
# MKL-2 = test: as above; conditions: MCC and control cell lines, CellTiter-Glo viability, 72 h; activity change, negative = cytotoxicity: at 46 µM (top of the series)
# In short: as §2
# WaGa = test: as above; conditions: MCC and control cell lines, CellTiter-Glo viability, 72 h; series mostly up to 46 µM
# In short: as §2
# MKL-1 = test: as above; conditions: MCC and control cell lines, CellTiter-Glo viability, 72 h; series mostly up to 46 µM
# In short: as §2
# % is scaled to controls: 0 for no effect and ±100 for the full control effect; potency is read from the fitted curve at half-maximal effect; tags tell the direction and shape of the fitted curve.
structure (smiles),measurement,setting,value
Cn1cc(-c2ccc3ncc(Cc4ccc5ncccc5c4)n3n2)cn1,Potency,NIH3T3,"inconclusive: 833 nM [inhibitor, full curve] and inconclusive: 20.6 µM [inhibitor, partial curve]"
same,Potency,C33A,"inconclusive: 39.8 µM [cytotoxic, single point]"
same,Potency,CAOV3,"inconclusive: 15.8 µM [cytotoxic, single point]"
Clc1ccc2ncc(-c3cccc(NC4CNC4)n3)n2c1,Potency,NIH3T3,"inconclusive: 33.2 µM [inhibitor, single point]"
same,Potency,UISO,"inconclusive: 26.4 µM [inhibitor, single point]"
same,Potency,CAOV3,inactive
O=C(NC1CCNCC1)c1[nH]ncc1NC(=O)c1c(Cl)cccc1Cl,Potency,MCC-13,"inconclusive: 16.6 µM [inhibitor, partial curve]"
same,Potency,MCC-26,"inconclusive: 2.09 µM [inhibitor, full curve]"
same,Potency,MKL-2,active: 0.833 µM
same,Potency,UISO,active: 1.32 µM
same,Potency,WaGa,"inconclusive: 0.418 µM [inhibitor, full curve]"
CC(C)C[C@H](NC(=O)[C@@H](NC(=O)c1cccc(-c2ccccc2)n1)[C@@H](C)O)B(O)O,Potency,NIH3T3,active: 118 nM and active: 116 nM
same,Potency,C33A,"inconclusive: 0.251 µM [cytotoxic, full curve, poor fit]"
same,Potency,CAOV3,active: 0.282 µM
O=C1C(CCC(O)c2ccc(F)cc2)C(c2ccc(O)cc2)N1c1ccc(F)cc1 (stereo not given),max response,NIH3T3,inactive: 1.16%
same,Potency,WaGa,inactive
C[C@@H]1[C@H](C)CC[C@]2(C(=O)O)CC[C@]3(C)C(=CC[C@@H]4[C@@]5(C)C[C@@H](O)[C@H](O)[C@@](C)(CO)[C@H]5CC[C@]43C)[C@@H]12,outcome,NIH3T3,inactive
same,Potency,WaGa,inactive
Cc1c(CN2CCN(S(C)(=O)=O)CC2)sc2c(N3CCOCC3)nc(-c3cnc(N)nc3)nc12,Potency,MCC-13,"inconclusive: 0.469 µM [inhibitor, full curve]"
same,Potency,MCC-26,active: 0.833 µM
same,Potency,MKL-1,"inconclusive: 0.743 µM [inhibitor, full curve]"
same,Potency,WaGa,"inconclusive: 0.0148 µM [inhibitor, full curve]"
same,Potency,C33A,active: 1.58 µM
same,Potency,CAOV3,"inconclusive: 0.631 µM [cytotoxic, full curve]"
CN(C)c1nc(N(C)C)nc(N(C)C)n1,Potency,MCC-26,inactive
same,Potency,MKL-2,inactive
CC[C@H](CC#N)OC(=O)N[C@@H](C)c1cccc(NC(=O)Nc2ccc(-c3cnco3)c(OC)c2)c1,Potency,MCC-26,"inconclusive: 3.32 µM [inhibitor, full curve]"
same,Potency,MKL-2,"inconclusive: 0.743 µM [inhibitor, full curve]"
same,Potency,UISO,"inconclusive: 1.66 µM [inhibitor, full curve]"
same,Potency,WaGa,"inconclusive: 0.526 µM [inhibitor, full curve]"
same,Potency,C33A,"inconclusive: 3.16 µM [cytotoxic, full curve]"
same,Potency,CAOV3,inactive
CCc1c(O)cc(O)c(C(=O)c2ccc(OCCN3CCOCC3)c(OC)c2)c1CC(=O)N(CCOC)CCOC,Potency,MCC-26,"inconclusive: 14.8 µM [inhibitor, partial curve]"
same,Potency,MKL-1,"inconclusive: 1.05 µM [inhibitor, full curve]"
same,Potency,MKL-2,"inconclusive: 23.5 µM [inhibitor, partial curve, poor fit]"
same,Potency,WaGa,"inconclusive: 0.59 µM [inhibitor, full curve]"
Nc1nc(=S)c2[nH]cnc2[nH]1,Potency,MCC-26,"inconclusive: 21.1 µM [inhibitor, partial curve] and active: 20.9 µM"
same,Potency,MKL-2,"active: 7.5 µM and inconclusive: 18.7 µM [inhibitor, partial curve, poor fit]"
same,Potency,UISO,active: 1.33 µM
same,Potency,C33A,"inconclusive: 7.94 µM [cytotoxic, full curve, poor fit]"
same,Potency,CAOV3,"inconclusive: 39.8 µM [cytotoxic, single point]"
CC=C1C2C=C(C)CC1(N)c1ccc(=O)[nH]c1C2 (stereo not given),Potency,MCC-26,inactive
COc1ccc2c(c1OC)C(=O)OC2[C@H]1c2c(cc3c(c2OC)OCO3)CCN1C (stereo not given in full),Potency,MCC-26,"inconclusive: 1.18 µM [inhibitor, full curve]"
same,Potency,WaGa,"inconclusive: 0.187 µM [inhibitor, full curve]"
CNC(=O)[C@H](CC1=CN=C2C=CCC=C12)NC(=O)[C@@H](CC(=O)NO)CC(C)C,Potency,MKL-1,active: 0.296 µM
same,Potency,MKL-2,active: 0.264 µM
same,Potency,UISO,"inconclusive: 37.2 µM [inhibitor, single point]"
same,Potency,WaGa,active: 0.296 µM
Cc1ccc(S(=O)(=O)NC(=O)NN2CC3CCCC3C2)cc1 (stereo not given),Potency,MKL-1,"inconclusive: 26.4 µM [inhibitor, single point]"
CN1CC(=O)NC1=NC(=O)Nc1cccc(Cl)c1,Potency,MKL-1,"inconclusive: 23.5 µM [inhibitor, single point]"
same,Potency,MKL-2,"inconclusive: 26.4 µM [inhibitor, single point]"
same,Potency,UISO,inactive
CCCCS(=N)(=O)CCC(N)C(=O)O (stereo not given),Potency,MCC-13,"inconclusive: 33.2 µM [inhibitor, single point]"
same,Potency,MKL-2,"inconclusive: 6.62 µM [inhibitor, full curve]"
O=C(c1ccc(C=Cc2n[nH]c3ccccc23)cc1)N1CCNCC1,Potency,MCC-26,"inconclusive: 5.26 µM [inhibitor, full curve]"
same,Potency,MKL-1,"inconclusive: 2.64 µM [inhibitor, full curve]"
same,Potency,UISO,"inconclusive: 4.69 µM [inhibitor, full curve]"
NS(=O)(=O)c1cc2c(cc1Cl)NC(C(Cl)Cl)NS2(=O)=O (stereo not given),Potency,MCC-13,inactive
same,Potency,CAOV3,inactive
CCn1c(=O)c2c(nc(C=Cc3ccc(OC)c(OC)c3)n2C)n(CC)c1=O,Potency,MKL-1,inactive
same,Potency,MKL-2,"inconclusive: 0.0296 µM [inhibitor, full curve]"
Cc1ccc(S(=O)(=O)OCC(=O)Nc2ccc(C(=O)O)c(O)c2)cc1,Potency,MCC-13,inactive
same,Potency,MKL-1,"inconclusive: 37.2 µM [inhibitor, single point]"
same,Potency,WaGa,"inconclusive: 33.2 µM [inhibitor, single point]"
O=C1c2cccc(O)c2C(=O)c2c(O)cc(CO)cc21,Potency,MKL-1,inactive
CC1=CC(=O)c2ccccc2C1=O,Potency,MKL-1,"inconclusive: 29.9 µM [inhibitor, single point]"
same,Potency,MKL-2,"inconclusive: 33.5 µM [inhibitor, single point]"
same,Potency,UISO,"inconclusive: 11.9 µM [inhibitor, partial curve]"
same,Potency,WaGa,"inconclusive: 29.9 µM [inhibitor, single point] and inactive"
CCOc1cc2ncc(C#N)c(Nc3ccc(F)c(Cl)c3)c2cc1NC(=O)C=CCN(C)C,Potency,MCC-26,active: 14.8 µM
same,Potency,MKL-2,active: 14.8 µM
same,Potency,UISO,active: 2.64 µM
same,Potency,WaGa,active: 9.35 µM
Cc1cc(Nc2cc(N3CCN(C)CC3)nc(C=Cc3ccccc3)n2)n[nH]1,Potency,MCC-13,active: 9.59 µM
same,Potency,MKL-2,"inconclusive: 34 µM [inhibitor, partial curve, poor fit]"
same,Potency,UISO,"inconclusive: 2.15 µM [inhibitor, full curve]"
same,Potency,WaGa,"inconclusive: 4.81 µM [inhibitor, full curve]"
CNC(=O)c1ccc(N2C(=S)N(c3ccc(C#N)c(C(F)(F)F)c3)C(=O)C2(C)C)cc1F,Potency,MKL-1,inactive
Nc1ccccc1NC(=O)c1ccc(CNc2nccc(-c3cccnc3)n2)cc1,Potency,MCC-13,active: 5.26 µM
same,Potency,MKL-2,active: 1.48 µM
same,Potency,C33A,active: 6.31 µM
same,Potency,CAOV3,"inconclusive: 4.47 µM [cytotoxic, full curve, poor fit]"
COc1ccc2c(c1)c(C1=C(c3c[nH]c4ccccc34)C(=O)NC1=O)cn2CCCN(C)C,Potency,MKL-1,"inconclusive: 26.4 µM [inhibitor, partial curve, poor fit]"
same,Potency,MKL-2,"inconclusive: 4.69 µM [inhibitor, single point]"
same,Potency,UISO,"inconclusive: 26.4 µM [inhibitor, single point]"
same,Potency,WaGa,"inconclusive: 20.9 µM [inhibitor, partial curve]"
C[C@H](CCC(=O)O)[C@H]1CC[C@H]2[C@H]3[C@@H](CC[C@]12C)[C@@]1(C)CC[C@@H](O)C[C@H]1C[C@@H]3O,Potency,MCC-26,inactive
same,Potency,MKL-2,inactive
same,Potency,WaGa,"inconclusive: 37.2 µM [inhibitor, single point]"
CC(O)C1C(=O)N2C(C(=O)O)=C(SC3CNC(C(=O)N(C)C)C3)C(C)C12 (stereo not given),Potency,MCC-13,inactive
same,Potency,WaGa,"inconclusive: 11.8 µM [inhibitor, single point]"
N#CC1(c2cccc(C(=O)Nc3cc(Oc4ccc5nc(NC(=O)C6CC6)sc5n4)ccc3F)c2Cl)CC1,Potency,MCC-26,active: 11.8 µM
same,Potency,UISO,"inconclusive: 29.6 µM [inhibitor, single point]"
same,Potency,WaGa,"inconclusive: 18.7 µM [inhibitor, partial curve, poor fit]"
same,Potency,CAOV3,active: 11.2 µM
COc1ccc(-c2cc(=O)c3c(O)cc(O[C@@H]4O[C@H](CO[C@@H]5O[C@@H](C)[C@H](O)[C@@H](O)[C@@H]5O)[C@@H](O)[C@H](O)[C@@H]4O)cc3o2)cc1O,Potency,MKL-1,inactive
NS(=O)(=O)c1cc(Cl)c(Cl)c(S(N)(=O)=O)c1,Potency,MKL-1,inactive
Nc1nc(F)nc2c1ncn2[C@@H]1O[C@H](CO)[C@@H](O)[C@@H]1O,Potency,MCC-26,active: 2.09 µM
same,Potency,MKL-2,"inconclusive: 21.1 µM [inhibitor, partial curve]"
same,Potency,WaGa,active: 10.6 µM and active: 935 nM
same,Potency,C33A,"inconclusive: 5.62 µM [cytotoxic, full curve, poor fit] and inconclusive: 39.8 µM [cytotoxic, partial curve, poor fit]"
same,Potency,CAOV3,"inconclusive: 22.4 µM [cytotoxic, single point]"
COc1cc2nc(N3CCN(C(=O)C4COc5ccccc5O4)CC3)nc(N)c2cc1OC (stereo not given),Potency,MKL-1,"inconclusive: 26.6 µM [inhibitor, single point]"
same,Potency,MKL-2,inactive
same,Potency,CAOV3,inactive

# From PubChem BioAssay (NCATS)
